Source: paper PMC12644247
These are yes or no findings as the source states them, for the method shown. Binding seen in cells or lysates may run through a third protein. Some binding calls cover weakened binding; strength is not graded here.

Sequences of proteins named here, by UniProt entry; tags and fusion partners are left off. A change or cut given only in a name is not applied to a line headed by its entry.
UniProt Q9UJU2: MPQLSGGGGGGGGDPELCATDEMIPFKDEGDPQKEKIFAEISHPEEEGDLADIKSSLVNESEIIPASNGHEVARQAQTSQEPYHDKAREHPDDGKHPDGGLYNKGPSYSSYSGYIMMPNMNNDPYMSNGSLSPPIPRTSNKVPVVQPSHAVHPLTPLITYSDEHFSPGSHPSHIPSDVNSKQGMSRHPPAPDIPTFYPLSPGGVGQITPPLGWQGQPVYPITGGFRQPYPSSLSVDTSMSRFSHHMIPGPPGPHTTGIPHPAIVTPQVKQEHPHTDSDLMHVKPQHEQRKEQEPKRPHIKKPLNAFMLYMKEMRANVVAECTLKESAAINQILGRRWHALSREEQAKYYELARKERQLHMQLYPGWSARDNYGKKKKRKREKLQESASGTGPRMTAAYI
UniProt P35222: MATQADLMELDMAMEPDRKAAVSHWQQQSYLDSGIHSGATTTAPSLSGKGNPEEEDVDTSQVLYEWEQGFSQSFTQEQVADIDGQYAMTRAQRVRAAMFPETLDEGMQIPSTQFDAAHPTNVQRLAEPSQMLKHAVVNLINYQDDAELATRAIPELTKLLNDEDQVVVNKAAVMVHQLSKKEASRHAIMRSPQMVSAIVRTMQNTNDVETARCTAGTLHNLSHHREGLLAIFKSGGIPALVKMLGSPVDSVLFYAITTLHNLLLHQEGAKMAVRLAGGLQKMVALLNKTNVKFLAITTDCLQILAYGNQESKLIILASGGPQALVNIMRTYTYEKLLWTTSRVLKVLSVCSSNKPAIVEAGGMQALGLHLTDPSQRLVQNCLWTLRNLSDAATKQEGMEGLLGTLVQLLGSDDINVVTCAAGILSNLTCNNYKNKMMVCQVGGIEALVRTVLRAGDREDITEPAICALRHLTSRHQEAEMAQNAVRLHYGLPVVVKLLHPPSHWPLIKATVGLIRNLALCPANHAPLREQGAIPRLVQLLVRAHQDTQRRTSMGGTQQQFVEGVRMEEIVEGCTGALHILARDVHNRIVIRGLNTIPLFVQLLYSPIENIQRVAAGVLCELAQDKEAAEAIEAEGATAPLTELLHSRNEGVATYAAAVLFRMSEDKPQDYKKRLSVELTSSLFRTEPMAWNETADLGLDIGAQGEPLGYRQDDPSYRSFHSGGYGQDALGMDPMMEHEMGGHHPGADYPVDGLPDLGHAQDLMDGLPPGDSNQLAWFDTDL
UniProt Q92793: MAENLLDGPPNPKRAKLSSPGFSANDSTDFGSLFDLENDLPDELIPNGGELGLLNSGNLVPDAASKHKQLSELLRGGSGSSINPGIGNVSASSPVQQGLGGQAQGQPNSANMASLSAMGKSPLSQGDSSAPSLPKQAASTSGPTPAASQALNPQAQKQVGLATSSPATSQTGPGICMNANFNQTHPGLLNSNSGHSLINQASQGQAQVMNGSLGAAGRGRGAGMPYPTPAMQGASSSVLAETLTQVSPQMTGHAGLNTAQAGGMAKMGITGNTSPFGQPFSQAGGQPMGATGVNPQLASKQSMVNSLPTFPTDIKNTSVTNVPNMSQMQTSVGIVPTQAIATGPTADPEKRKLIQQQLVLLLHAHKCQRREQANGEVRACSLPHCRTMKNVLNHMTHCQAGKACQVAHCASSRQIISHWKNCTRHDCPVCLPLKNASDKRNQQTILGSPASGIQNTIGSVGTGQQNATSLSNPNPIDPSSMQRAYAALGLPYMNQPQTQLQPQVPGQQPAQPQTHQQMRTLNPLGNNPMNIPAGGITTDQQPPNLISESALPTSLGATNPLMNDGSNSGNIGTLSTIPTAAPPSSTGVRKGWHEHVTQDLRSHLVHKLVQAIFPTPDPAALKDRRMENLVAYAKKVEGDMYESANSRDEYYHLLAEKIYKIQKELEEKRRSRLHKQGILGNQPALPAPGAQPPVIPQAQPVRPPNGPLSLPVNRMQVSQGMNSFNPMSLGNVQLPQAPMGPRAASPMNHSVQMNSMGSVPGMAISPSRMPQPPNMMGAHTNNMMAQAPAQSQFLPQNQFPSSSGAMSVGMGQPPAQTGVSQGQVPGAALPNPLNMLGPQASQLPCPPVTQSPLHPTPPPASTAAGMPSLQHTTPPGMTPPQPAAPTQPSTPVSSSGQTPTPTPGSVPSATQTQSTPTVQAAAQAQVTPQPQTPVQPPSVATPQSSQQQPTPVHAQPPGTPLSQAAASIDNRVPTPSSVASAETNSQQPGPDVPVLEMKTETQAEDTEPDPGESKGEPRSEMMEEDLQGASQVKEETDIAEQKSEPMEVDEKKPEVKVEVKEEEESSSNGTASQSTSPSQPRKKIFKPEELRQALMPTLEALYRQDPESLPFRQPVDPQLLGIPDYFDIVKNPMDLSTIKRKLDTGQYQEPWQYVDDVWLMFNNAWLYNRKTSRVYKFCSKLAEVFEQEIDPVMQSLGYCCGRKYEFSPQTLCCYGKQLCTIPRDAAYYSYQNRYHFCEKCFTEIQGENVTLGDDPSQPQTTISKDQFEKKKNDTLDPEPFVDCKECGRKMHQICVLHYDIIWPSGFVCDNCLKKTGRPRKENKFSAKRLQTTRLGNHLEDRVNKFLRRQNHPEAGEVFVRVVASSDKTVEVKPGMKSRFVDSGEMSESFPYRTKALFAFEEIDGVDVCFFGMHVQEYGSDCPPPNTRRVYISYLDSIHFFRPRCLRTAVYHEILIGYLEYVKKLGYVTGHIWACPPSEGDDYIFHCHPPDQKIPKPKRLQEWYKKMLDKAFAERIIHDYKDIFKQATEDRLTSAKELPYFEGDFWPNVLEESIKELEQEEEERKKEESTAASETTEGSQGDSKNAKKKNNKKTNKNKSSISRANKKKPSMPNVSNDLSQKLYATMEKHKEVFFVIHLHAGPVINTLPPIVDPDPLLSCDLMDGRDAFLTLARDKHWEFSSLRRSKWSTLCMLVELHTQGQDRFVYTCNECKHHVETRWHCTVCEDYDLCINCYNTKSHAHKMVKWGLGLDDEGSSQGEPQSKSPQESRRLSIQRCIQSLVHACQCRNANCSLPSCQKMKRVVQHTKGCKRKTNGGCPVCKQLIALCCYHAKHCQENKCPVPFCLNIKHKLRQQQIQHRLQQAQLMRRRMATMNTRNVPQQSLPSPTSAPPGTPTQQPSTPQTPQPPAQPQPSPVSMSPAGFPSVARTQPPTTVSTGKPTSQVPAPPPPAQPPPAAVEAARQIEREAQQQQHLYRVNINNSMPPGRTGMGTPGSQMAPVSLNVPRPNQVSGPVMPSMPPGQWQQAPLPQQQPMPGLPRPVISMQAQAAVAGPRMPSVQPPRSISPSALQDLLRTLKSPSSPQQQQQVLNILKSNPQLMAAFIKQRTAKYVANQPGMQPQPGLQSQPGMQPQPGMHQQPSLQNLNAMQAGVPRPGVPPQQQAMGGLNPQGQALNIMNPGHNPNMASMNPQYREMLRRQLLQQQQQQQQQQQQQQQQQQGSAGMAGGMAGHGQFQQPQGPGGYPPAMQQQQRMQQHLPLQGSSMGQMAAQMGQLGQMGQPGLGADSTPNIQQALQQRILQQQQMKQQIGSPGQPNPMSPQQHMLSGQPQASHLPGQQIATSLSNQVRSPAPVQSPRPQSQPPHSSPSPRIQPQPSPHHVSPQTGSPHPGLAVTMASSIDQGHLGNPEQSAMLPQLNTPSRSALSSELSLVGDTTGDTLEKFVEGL

Experiments:
Flag‐LEF1 (wild type) [1] = biological target: Flag‐LEF1 (wild type) (UniProt Q9UJU2); test: condition: only with His-USP30 overexpressed in the cells; co-IP; anti-Flag beads, HEK293 cells co-transfected with Flag-LEF1 and His-USP30 (Figure 5B,C)
Flag‐LEF1 (wild type) [2] = biological target: Flag‐LEF1 (wild type) (UniProt Q9UJU2); test: co-IP; anti-Flag beads, HEK293 cells transfected with Flag-LEF1 or Flag-LEF1-K379A/K382A, with His-vector or His-USP30 (Figures 5B,C and 6D,E); CBP and P300 rows: without His-USP30
[3] = biological target: β‐catenin (human (endogenous in HEK293)) (UniProt P35222); test: co-IP; anti-β-catenin antibody, HEK293 cells transfected with His-vector or His-USP30 (Figures 5A, S6G); CBP and P300 rows: without His-USP30
[4] = biological target: β‐catenin (human (endogenous in HEK293)) (UniProt P35222); test: condition: only with His-USP30 overexpressed in the cells; co-IP; anti-β-catenin antibody, HEK293 cells with His-USP30 overexpression (Figures 5A, S6G)
Flag‐LEF1‐K379A/K382A = Flag‐LEF1‐K379A/K382A (UniProt Q9UJU2); test: co-IP; anti-Flag beads, HEK293 cells transfected with Flag-LEF1 or Flag-LEF1-K379A/K382A, with His-vector or His-USP30 (Figures 5B,C and 6D,E); CBP and P300 rows: without His-USP30

In the case of “CBP (from UniProt Q92793 1-2442) (enzyme)”, the binding (Flag‐LEF1 (wild type) [1]) is reported as “no binding”, the binding (Flag‐LEF1 (wild type) [2]) is reported as “binds” and the binding [3] is reported as “binds”. The binding [4] was “no binding”.

With “transcription factor TCF/LEF1, endogenous (from UniProt Q9UJU2 1-399)” the binding [3] was “binds”.

With β‐catenin (from UniProt P35222 1-781) the binding (Flag‐LEF1‐K379A/K382A) was “binds” and the binding (Flag‐LEF1 (wild type) [2]) was “binds”.
